Data taken from the supplement of paper PMC9446081.
The campaign covered roughly 39,000 compounds. About 220 (0.56%) showed activity. Some of the results follow.

system: Escherichia coli K-12 BW25113; assay: relative growth (OD600 normalised to plate interquartile mean) (fraction); higher = less growth inhibition, active = 0.2 or less; conditions: 50 µM; LB; incubation time: overnight (16-24 h)
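Also: static incubation at 37 °C against the wild-type strain, values averaged over two biological replicates.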

SMILES | relative growth
C[C@H]1CN([C@@H](C)CO)C(=O)c2cccc(NC(=O)C3CCOCC3)c2O[C@H]1CN(C)S(=O)(=O)c1ccc(Cl)cc1 | inactive: 1.01
CC1=NCCN1C(=O)[C@@H](N)CC(C)C | inactive: 1
Cc1cc(Cl)ccc1OCCN1CCN(C(=O)[C@H]2CC[C@@H](N)C2)CC1 | inactive: 0.931
C[C@H]1CN([C@@H](C)CO)C(=O)c2cc(NC(=O)CCC(F)(F)F)ccc2O[C@H]1CN(C)Cc1ccc(C(F)(F)F)cc1 | inactive: 1.02
COc1ccc(S(=O)(=O)N2C[C@@H](O)COC[C@@H]3O[C@H](CC(=O)NCc4ccc(Cl)c(Cl)c4)CC[C@H]32)cc1 | inactive: 1.01
COCc1cn([C@H]2C[C@H](O)[C@@H](CO)O2)c(=O)[nH]c1=O | inactive: 0.986
O=C1CN(S(=O)(=O)Cc2ccccc2)C[C@@H]2[C@H](c3ccc(C#Cc4cccc(F)c4)cc3)[C@H](CO)N12 | inactive: 1.03
O=C(C[C@H]1C[C@@H]2c3cc(NC(=O)Nc4ccccc4F)ccc3O[C@@H]2[C@H](CO)O1)NCc1ccc(Oc2ccccc2)cc1 | inactive: 0.951
C[C@@H]1CN([C@@H](C)CO)C(=O)Cc2cc(NC(=O)Cn3cnnn3)ccc2O[C@@H]1CN(C)S(=O)(=O)c1cn(C)cn1 | inactive: 1
Cc1noc(C)c1S(=O)(=O)Nc1ccc2c(c1)C(=O)N([C@H](C)CO)C[C@H](C)[C@H](CN(C)C(=O)NC(C)C)O2 | inactive: 0.986
C[C@H](CO)N1C[C@H](C)[C@H](CN(C)C(=O)Nc2ccc(F)cc2)OCCCC[C@H](C)Oc2ccc(NS(=O)(=O)c3ccccc3)cc2C1=O | inactive: 1.05
C[C@H]1CN([C@@H](C)CO)C(=O)c2cc(NS(=O)(=O)c3ccc(Cl)cc3)ccc2O[C@H]1CN(C)Cc1ccc(Oc2ccccc2)cc1 | inactive: 1.01
Cc1c2oc3c(C)ccc(C(=O)OC(C)C4NC(=O)C(C(C)C)N(C)C(=O)CN(C)C(=O)C5CCCN5C(=O)C(C(C)C)NC4=O)c3nc-2c(C(=O)OC(C)C2NC(=O)C(C(C)C)N(C)C(=O)CN(C)C(=O)C3CCCN3C(=O)C(C(C)C)NC2=O)c(N)c1=O (stereo not drawn) | inactive: 0.758
C[C@H](CO)N1C[C@H](C)[C@@H](CN(C)Cc2ccc(-c3ccccc3)cc2)Oc2ccc(NC(=O)CCCCCC(=O)Nc3ccccc3N)cc2CC1=O | inactive: 0.96
C[C@@H]1CN([C@H](C)CO)C(=O)c2cc(NC(=O)C3CCCCC3)ccc2O[C@@H](C)CCCCO[C@H]1CN(C)C(=O)Nc1ccc(F)cc1 | inactive: 0.992
O=C(C[C@H]1CC[C@H]2[C@@H](COC[C@H](O)CN2Cc2ccccc2F)O1)N[C@@H]1CCN(Cc2ccccc2)C1 | inactive: 0.961
CC(C)NC(=O)Nc1ccc2c(c1)C(=O)N([C@H](C)CO)C[C@H](C)[C@@H](CN(C)C(=O)Nc1ccc(C(F)(F)F)cc1)OCCCC[C@H](C)O2 | inactive: 1.04
Cc1ccc2c(N)[nH]nc2n1 | inactive: 0.97
COc1ccccc1S(=O)(=O)N[C@@H]1C=C[C@@H](CC(=O)N2CCN(C)CC2)O[C@H]1CO | inactive: 0.994
C[C@@H]1CCCCO[C@@H](CN(C)S(=O)(=O)c2cn(C)cn2)[C@@H](C)CN([C@@H](C)CO)C(=O)c2cc(NS(=O)(=O)c3cccs3)ccc2O1 | inactive: 0.973

SMILES | relative growth
CCCCC/C=C\C/C=C\CCCCCCCC(N)=O | inactive: 0.89
COC(=O)c1c(CC[C@@H](CO)NC(=O)N2CCC[C@H]2Cn2cc(Cc3ccccc3)nn2)oc(C(C)=O)c1C(=O)OC | inactive: 1.01
C[C@@H]1CN([C@@H](C)CO)C(=O)Cc2cc(NC(=O)Nc3ccc(F)cc3)ccc2O[C@@H]1CN(C)C(=O)Nc1ccc(C(F)(F)F)cc1 | inactive: 1.01
O=C(CCCN1CC=C(n2c(=O)[nH]c3ccccc32)CC1)c1ccc(F)cc1 | inactive: 1.08
CCS(=O)(=O)N1C[C@]2(CN(C2)C(=O)Nc2c(noc2C)C)c2c([nH]c3cc(ccc23)OC)[C@H]1CO | inactive: 1.02
CN(C)CCCCNC(=O)[C@H]1C[C@H]2C(=O)N[C@@H](CCCC[N+](C)(C)C)C(=O)N2[C@H]1c1ccc(O)cc1 | inactive: 0.984
CO[C@@H]1CN(C)C(=O)c2ccc(NS(=O)(=O)CC(F)(F)F)cc2OC[C@H](C)N(Cc2nccs2)C[C@H]1C | inactive: 0.987
C[C@H]1CN([C@@H](C)CO)C(=O)c2cc(NS(=O)(=O)c3ccc(F)cc3)ccc2O[C@@H]1CN(C)S(=O)(=O)c1cccs1 | inactive: 0.983
COC1C(=O)C2(C)C(OC)CC3OCC3(OC(C)=O)C2C(OC(=O)c2ccccc2)C2(O)CC(OC(=O)C(O)C(NC(=O)OC(C)(C)C)c3ccccc3)C(C)=C1C2(C)C (stereo not drawn) | inactive: 0.892
CCCCCCCCCC(=O)N[C@H]1[C@H](Oc2c3cc4cc2Oc2ccc(cc2Cl)[C@@H](O[C@@H]2O[C@H](CO)[C@@H](O)[C@H](O)[C@H]2NC(C)=O)[C@@H]2NC(=O)[C@H](NC(=O)[C@@H]4NC(=O)[C@H]4NC(=O)[C@@H](Cc5ccc(c(Cl)c5)O3)NC(=O)[C@@H](N)c3ccc(O)c(c3)Oc3cc(O)cc4c3)c3ccc(O)c(c3)-c3c(O[C@H]4O[C@H](CO)[C@@H](O)[C@H](O)[C@@H]4O)cc(O)cc3[C@H](C(=O)O)NC2=O)O[C@H](CO)[C@@H](O)[C@@H]1O | inactive: 1.04
Cc1noc(C)c1S(=O)(=O)Nc1ccc2c(c1)C(=O)N([C@@H](C)CO)C[C@@H](C)[C@H](CN(C)Cc1ccc(C(F)(F)F)cc1)OCCCC[C@H](C)O2 | inactive: 0.997
Cc1ccccc1S(=O)(=O)N1C[C@H](O)COC[C@@H]2O[C@@H](CC(=O)NCc3ccccc3Cl)CC[C@H]21 | inactive: 0.97
COCCOC(=O)N1C(=O)[C@@]2(c3cc(C#CC4(O)CCCCCC4)ccc31)[C@H](c1ccc(OCCO)cc1)N1[C@H](c3ccccc3)[C@H](c3ccccc3)OC(=O)[C@H]1[C@@H]2C(N)=O | inactive: 1.02
COc1ccc(NC(=O)Nc2cccc3c2O[C@@H](CN(C)Cc2ccc(-c4ccccc4)cc2)[C@H](C)CN([C@@H](C)CO)C3=O)cc1 | inactive: 1
C[C@H]1CN([C@@H](C)CO)C(=O)c2cc(NC(=O)Nc3ccc(F)cc3)ccc2O[C@@H]1CN(C)Cc1ccc(Oc2ccccc2)cc1 | inactive: 1.03
COc1cccc(NC(=O)N(C)C[C@@H]2Oc3cc(C#CC4(O)CCCC4)ccc3S(=O)(=O)N([C@@H](C)CO)C[C@@H]2C)c1 | inactive: 0.986
C[C@H]1CN([C@@H](C)CO)C(=O)Cc2cc(NC(=O)c3ccncc3)ccc2O[C@@H]1CN(C)S(=O)(=O)c1ccccc1 | inactive: 0.991
CC(C)NC(=O)N(C)C[C@@H]1Oc2ccc(NS(=O)(=O)c3ccccc3)cc2C(=O)N([C@@H](C)CO)C[C@@H]1C | inactive: 0.995
O=C(C1=C[C@@H](c2ccc(C(F)(F)F)cc2)C[C@@H](OCc2ccc(CO)cc2)O1)N1CCCCCCC1 | inactive: 1.06
CC(C)NC(=O)Nc1ccc2c(c1)CC(=O)N([C@H](C)CO)C[C@H](C)[C@H](CN(C)C(=O)Nc1ccc3c(c1)OCO3)O2 | inactive: 1

SMILES | relative growth
O=C(O)/C=C/C(=O)N1CCN(C(=O)/C=C/C(=O)O)CC1 | inactive: 0.977
C[C@@H]1CN([C@@H](C)CO)C(=O)c2cc(NC(=O)Nc3cccc4ccccc34)ccc2O[C@@H](C)CCCCO[C@H]1CN(C)Cc1ccc(C(=O)O)cc1 | inactive: 1.03
OCc1ncc[nH]1 | inactive: 0.971
C[C@@H]1CCCCO[C@H](CN(C)S(C)(=O)=O)[C@H](C)CN([C@@H](C)CO)C(=O)c2cc(N(C)C)ccc2O1 | inactive: 1.04
CCC(=O)O | inactive: 1.01
COc1ccc2c3c(n(c2c1)C)[C@H](CO)N(C[C@]13CN(C1)S(=O)(=O)c1ccc(cc1)C)S(=O)(=O)c1ccc(cc1)C | inactive: 1.05
CS(=O)(=O)NCc1ccsc1 | inactive: 1.04
COc1cccc(S(=O)(=O)N(C)C[C@@H]2Oc3ncc(C#CCN(C)C)cc3C(=O)N([C@@H](C)CO)C[C@H]2C)c1 | inactive: 0.988
Cc1n[nH]c(SCC(=O)O)nc1=O | inactive: 0.988
CCCNc1nc(Nc2ccc(C#N)cc2)ncc1C#CCCCNC(=O)[C@H](C)N(C)C(=O)/C=C/CN(C)C | inactive: 0.993
Cc1noc(C)c1NC(=O)Nc1cccc2c1O[C@H](CN(C)Cc1ccc(C(=O)Nc3ccccc3N)cc1)[C@H](C)CN([C@@H](C)CO)C2=O | inactive: 1.04
C[C@@H]1CN([C@@H](C)CO)C(=O)Cc2cc(NS(=O)(=O)c3cn(C)cn3)ccc2O[C@@H]1CN(C)Cc1ccccc1 | inactive: 0.996
CN1CCN(C(=O)C[C@H]2CC[C@H]3[C@@H](COC[C@H](O)CN3CC3CCCC3)O2)CC1 | inactive: 0.989
Cc1cc(C)c(-c2ccc(NC(=O)[C@H](Cc3ccc(C(=O)NCCS(=O)(=O)O)cc3)c3ccc(-c4ccc(C(C)(C)C)cc4)cc3)cc2)c(C)c1 | inactive: 0.937
COC(=O)C(=C1OC(=O)C(c2ccccc2)=C1O)c1ccccc1 | inactive: 0.951
Cc1ccc(S(=O)(=O)N(C)C[C@@H]2Oc3c(NC(=O)c4cnccn4)cccc3C(=O)N([C@@H](C)CO)C[C@H]2C)cc1 | inactive: 0.991
O=C(C[C@@H]1CC[C@@H](NC(=O)CN2CCOCC2)[C@H](CO)O1)NCc1cccc(F)c1 | inactive: 0.999
O=C(CN1CCOCC1)N[C@@H]1CC[C@@H](CCNS(=O)(=O)c2ccccc2F)O[C@@H]1CO | inactive: 0.987
